Data on 29 compounds can be found in the supplement of paper PMC12297408.

Counter-ions that a name gives are not always drawn. The campaign covered roughly 1,300 compounds. About 40 (3%) showed activity. Some of the results follow.

The test system of this experiment is Plasmodium falciparum NF54/iGP1_RE9H ulg8 stage V gametocytes. As to the kind of experiment: gametocyte viability (luciferase signal relative to DMSO control) (% of DMSO control); higher = less gametocytocidal activity, active = 50 or less. To be noted: exposure time: 72 h. The essentials: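 NF54/iGP1_RE9Hulg8 stage V gametocytes (day 12; ~2.5% gametocytemia, 3% hematocrit) in medium with 0.5% Albumax II were added to 96-well plates of nanolitre-spotted compounds (10 mM DMSO stocks), giving 10 µM or 1 µM, one well each. Plates were incubated 72 h at 37 °C. Then 90 µl was mixed with 10 µl D-luciferin (30 mg/ml) and luminescence was read on an IVIS Lumina II. Viability is relative to the mean of plate DMSO vehicle controls.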

Turning to `O=C(NC(Cc1cc(=O)[nH]c2ccccc12)C(=O)O)c1ccc(Cl)cc1` (stereo not drawn) [Rebamipide], the gametocyte viability reads like this: (concentration: 1 µM) inactive: 78.2; (concentration: 10 µM) inactive: 84.5.
As to `Nc1ncn(C2OC(CO)C(O)C2O)c(=O)n1` (stereo not drawn) [Azacytidine-5], the gametocyte viability reads like this: (concentration: 1 µM) inactive: 86.9; (concentration: 10 µM) inactive: 81.9.
Take `C[N+](C)(C)CCOC(N)=O` [Carbachol]: the gametocyte viability by setting is: (concentration: 1 µM) inactive: 93.9; (concentration: 10 µM) inactive: 91.
The like results for `CC(C)(C)NC[C@H](O)COc1cccc2c1CCCC2=O` [(-) -Levobunolol hydrochloride] were, in that order, inactive: 93.6 and inactive: 91.2.
Turning to `CCCNC(C)(C)COC(=O)c1ccccc1` [Meprylcaine hydrochloride], the gametocyte viability is inactive: 84.1 (concentration: 1 µM) and inactive: 84.9 (concentration: 10 µM).
The like results for `NC[C@@H]1O[C@H](O[C@H]2[C@@H](O)[C@H](O[C@@H]3[C@@H](O)[C@H](N)C[C@H](N)[C@H]3O[C@H]3O[C@H](CN)[C@@H](O)[C@H](O)[C@H]3N)O[C@@H]2CO)[C@H](N)[C@@H](O)[C@@H]1O` [Neomycin sulfate] were, in that order, inactive: 81.7 and inactive: 84.7.
The like results for `NC1CCN(c2c(F)cc3c(=O)c(C(=O)O)cn(C4CC4)c3c2Cl)C1` (stereo not drawn) [Clinafloxacin] were, in that order, inactive: 92.1 and inactive: 90.8.
The like results for `CCC1(C)CC(=O)NC1=O` (stereo not drawn) [Ethosuximide] were, in that order, inactive: 82.9 and inactive: 81.6.
Take `C[N+](C)(CCOc1ccccc1)Cc1ccccc1.O=C([O-])c1cc2ccccc2cc1O` [Bephenium hydroxynaphthoate]: the gametocyte viability (concentration: 1 µM) was inactive: 87.3 and the gametocyte viability (concentration: 10 µM) is inactive: 89.9.
The like results for `CC(NCCc1ccc(O)cc1)C(O)c1ccc(O)cc1` (stereo not drawn) [Ritodrine hydrochloride] were, in that order, inactive: 90 and inactive: 91.
In the case of `CCc1nn(CCCN2CCN(c3cccc(Cl)c3)CC2)c(=O)n1CCOc1ccccc1` [Nefazodone HCl], the gametocyte viability reads like this: (concentration: 1 µM) inactive: 81.7; (concentration: 10 µM) inactive: 71.4.
Turning to `CCC(C)(C)C(=O)O[C@H]1C[C@@H](C)C=C2C=C[C@H](C)[C@H](CC[C@@H]3C[C@@H](O)CC(=O)O3)[C@H]21` [Simvastatin], the gametocyte viability is inactive: 80.4 (concentration: 1 µM) and inactive: 85.5 (concentration: 10 µM).
The like results for `N=c1nc(N2CCCCC2)cc(N)n1O` [Minoxidil] were, in that order, inactive: 102 and inactive: 96.
The like results for `CC(=O)Oc1ccc(C(c2ccc(OC(C)=O)cc2)c2ccccn2)cc1` [Bisacodyl] were, in that order, inactive: 83.9 and inactive: 83.5.
For `CCCc1nn(C)c2c(=O)[nH]c(-c3cc(S(=O)(=O)N4CCN(C)CC4)ccc3OCC)nc12` [Sildenafil] the same measures were inactive: 90.3 and inactive: 70.6.
Turning to `O=C(O)c1ccccc1Nc1cccc(C(F)(F)F)c1` [Flufenamic acid], the gametocyte viability is, setting by setting: (concentration: 1 µM) inactive: 86.8; (concentration: 10 µM) inactive: 88.2.
Take `CC[N+](C)(CC)CCC[n+]1c(-c2ccccc2)c2cc(N)ccc2c2ccc(N)cc21` [Propidium iodide]: the gametocyte viability was inactive: 80 (concentration: 1 µM) and inactive: 84.1 (concentration: 10 µM).
For `Clc1ccc(C(c2ccccc2Cl)C(Cl)Cl)cc1` (stereo not drawn) [Mitotane] the same measures were inactive: 85.4 and inactive: 80.8.
For `O=C1O[C@H]([C@@H](O)CO)C(O)=C1O` [Ascorbic acid] the same measures were inactive: 79.5 and inactive: 84.9.
For `Nc1ccc(C(=O)O)c(O)c1` [4-aminosalicylic acid], the gametocyte viability by setting is: (concentration: 1 µM) inactive: 95.8; (concentration: 10 µM) inactive: 98.6.
The like results for `O=C1Nc2ccc(Cl)cc2[C@@](C#CC2CC2)(C(F)(F)F)O1` [Efavirenz] were, in that order, inactive: 85.8 and inactive: 94.3.
The like results for `OCCN1CCN(CC/C=C2/c3ccccc3Sc3ccc(Cl)cc32)CC1` [Zuclopenthixol hydrochloride] were, in that order, inactive: 100 and inactive: 95.8.
For `Nc1nc(/C(=C/CC(=O)O)C(=O)N[C@@H]2C(=O)N3C(C(=O)O)=CCS[C@H]23)cs1` [Ceftibuten] the same measures were inactive: 97.5 and inactive: 94.8.
Turning to `Nc1ccc(/N=N/c2ccccc2)c(N)n1` [Phenazopyridine hydrochloride], the gametocyte viability (concentration: 1 µM) is inactive: 88.3 and the gametocyte viability (concentration: 10 µM) is active: 48.1.
For `CCc1cc(Cl)c(OC)c(C(=O)NC[C@@H]2CCCN2CC)c1O` [S(-)Eticlopride hydrochloride] the same measures were inactive: 81.3 and inactive: 86.4.
For `CN(C)CCOC(=O)C(c1ccccc1)C1(O)CCCC1` (stereo not drawn) [Cyclopentolate hydrochloride] the same measures were inactive: 95.8 and inactive: 90.3.
For `CCC(=O)O[C@]1(C(=O)SCF)[C@H](C)C[C@H]2[C@@H]3C[C@H](F)C4=CC(=O)C=C[C@]4(C)[C@@]3(F)[C@@H](O)C[C@@]21C` [Fluticasone propionate] the same measures were inactive: 92 and inactive: 96.4.
Take `O=C1[C@H]2CCCC[C@H]2C(=O)N1CCCCN1CCN(c2nsc3ccccc23)CC1` [Perospirone]: the gametocyte viability was inactive: 64.7 (concentration: 1 µM) and active: 39.7 (concentration: 10 µM).
The like results for `Clc1cccc(Cl)c1NC1=NCCN1` [Clonidine hydrochloride] were, in that order, inactive: 84.6 and inactive: 98.6.
